# Some of the results follow.
# Test system: PfAP2-HC AP2 domain (GST-tagged)
# Assay: gcPBM binding intensity (ln(normalized median fluorescence intensity)); higher = stronger DNA binding
# In short: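 For binding intensity, the highest Masliner-normalised natural-log median intensity across replicate spots of either probe orientation was taken. Protein bound to the array was stained with Alexa488 anti-GST antibody and scanned at 488 nm. The protein, GST-tagged P. falciparum DNA-binding domains from E. coli at about 25 μg on average, had been applied for 1 h to an Agilent 4 × 180k array of primer-extended double-stranded 36-bp intergenic genomic probes and negative controls.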
row,Sequence,gcPBM binding intensity (ln)
1,TAAACATTGTAAAGGAGTACAAAATTTTTTTTATGA [XGTACX_site7757],9.55
2,AATAATAAAAAATACACACACATATATATATATTAC [CACACA_site3464],10.2
3,ATATATATTTATTTATGTACGAATAAATTTACGAAT [XGTACX_site5190],9.51
4,TTAATAGGTCGAAGTAGTACATAAAAATATATATAT [XGTACX_site5960],9.67
5,AATATCATTATATAAGTGCATTTTTTAAAAGATAAA [GTGCAC_site9479],9.52
6,AAGTTAACAATATGAAGTACAAATGAAAAAAAAAAA [XGTACX_site666],9.74
7,ATATATATATATCATAGTACACATATGTGTCTCGTG [XGTACX_site774],9.89
8,TTGTTATAGAAGCATTCACACACACCCATACATACA [CACACA_site8414],10.8
9,ACTGTCGTTTTAAAGAGTACATAAAATATTAAATTA [XGTACX_site3589],9.14
10,ATGTCTTTGAAAAAAAGTACTTAAAATTATAAAAAT [XGTACX_site147],9.42
11,TTCTTTTAAAGGTATACATGCGCATGGATTTTTCAT [TGCATGCA_site223],9.89
12,TCAAAGCACAGATACACACACATATATATATATATA [CACACA_site287],10.1
13,AATTAAAAAATTATCACACATATATATATATATATA [CACACA_site5789],9.53
14,AAAACTATTAATGCAAAAAATAAAATATAATAATAA [XGTACX_negctrl_site524],9.69
15,TATATACCACATTGTTGTACGACACATTTACATTTT [XGTACX_site8370],10
16,GGAAACACGATATATACACACATATTTATATTTATA [CACACA_site6250],10.2
17,TCCAAATAAATATATTGTACAGAATTATTGATACCT [XGTACX_site327],9.5
18,ATGTTGTTATAAAGAGTGCAACGTATATGTATCCTT [GTGCAC_site9935],9.67
19,AGAAAAGGAAAATAAACATGCAAAAATAATATTAAA [TGCATGCA_site337],9.67
20,ATTCTGAATGTTATGCGTACATATTAATCCTATTTA [XGTACX_site1216],9.61
21,TAAGGTTCATTAAAGTGTACACATAAATACCGTAAC [XGTACX_site8212],9.78
22,TGTAATAATTATTGCACGCACACAAAAACCTATAGA [CACACA_site2932],9.91

row,Sequence,gcPBM binding intensity (ln)
1,AAGTAAATATAATAAGGTACACATAAATAAATAAAT [XGTACX_site1740],9.93
2,AAAAAAAAAAAAAGTACACACTTTTGCGTACAAGTA [CACACA_site5672],9.76
3,TATTTATTATATAAATGTACATAATATATGTATGTC [XGTACX_site2815],9.57
4,TATATCATAAAAAATTGTACATATATATATTATATA [XGTACX_site6726],9.47
5,TGATGGGACATAAATATTGAGATGATCATAAGATAA [TGCATGCA_negctrl_site276],9.69
6,AAAGATAATATATGCACACATATAAATATATAAATA [CACACA_site3477],9.85
7,TTATGATTATAACGTTTTGACATTAGGCATATATAT [CACACA_negctrl_site1396],9.56
8,AAGAAAAAAAAAAAAAAAAAAAAAAAAAATTTATGA [TGCATGCA_negctrl_site294],9.12
9,CAGTTATTTTAATGTGGTACACAATTTTAAAATTAT [XGTACX_site8571],9.52
10,TGAAATGATATATAAACACACATATATAAATATGTA [CACACA_site7616],9.83
11,AAATATAATTTGCGATGTACACATATATATTTATTT [XGTACX_site1568],9.75
12,ATATAAAATGAACATAGTACTTTTTATATATTTTAA [XGTACX_site7461],9.42
13,TACCTATACCTATACACACACACACGGAAATAAATA [CACACA_site6750],10.3
14,AATTTTATAAAAAGTAGTACATATCAAACACCTTGA [XGTACX_site2297],9.65
15,AATGTGCCCACGCGTACACACAAAAAAAGAAAAAAA [CACACA_site2003],9.7
16,ATAAAATAATTAATGGGTACATAATTAAATAAAGAG [XGTACX_site3309],10
17,TTTTAAAAAAAAAAAAAAAAAATTAAAATAATTCAA [TGCATGCA_negctrl_site69],8.82
18,CATACATAGAAACACACACACACACCCACCCACAAA [CACACA_site494],10.6
19,ATTCTATATTTAAATGCATGCACTTTCTATTTTTTT [TGCATGCA_site435],10.2
20,TTTAATTTGTTATACACACACAAAAAAAATTATAAA [CACACA_site3937],9.88
21,GACACTTTGAAGGGTACATGCAGAAAAAAAAAAAAA [TGCATGCA_site89],9.34
22,TTTTATTTATCTAATTGTACTCATTCTTTTTTGATG [XGTACX_site2876],9.65

row,Sequence,gcPBM binding intensity (ln)
1,GCTAAAAGTATATGCACACACATATAGATGCACATA [CACACA_site6868],10.1
2,AATACAATTTTTAACACACACACAATAATACAGATA [CACACA_site4823],11.2
3,GTGTAATTTATTGTGTTGCACTTTTTTTTTTTTTTT [GTGCAC_site9644],9.84
4,AAGATAGACTCATATGCATGCATTCACATACCAACA [TGCATGCA_site179],9.79
5,TTAATATAGGAATATGCACACATATATACATACATA [CACACA_site8432],9.8
6,GGATAAGATGTATATACACACAATTTAAAAAAATAA [CACACA_site910],9.82
7,TTTGATAAAATTGATATCCTATAATTATATAAATAA [GTGCAC_negctrl_site317],9.36
8,AAAAAACAGACATACACACACACACCCATATATATA [CACACA_site3392],10.8
9,GATAAAATAAAAGTGGGTACTTAAATATATATATAA [XGTACX_site8457],9.77
10,AAAAGTACAATATATATGTATGTGTATAGAATGGTT [TGCATGCA_negctrl_site76],9.95
11,TACAATTTGATATATACACACAAATAAATTATGCTT [CACACA_site6534],9.71
12,ATAATATTATACTTTGCACACATCTGAAATGACATA [CACACA_site3952],9.79
13,AAAGAATTTAAATATTGTACGCAATATATAAAAAAA [XGTACX_site7616],9.64
14,TAATATTATTATTTTACACACTTTTTTCCTTTTATC [CACACA_site2457],9.88
15,TTCTATATATATATAGACAAACGATAAAATAAAAAA [GTGCAC_negctrl_site142],9.48
16,TAATAATAGTGAGAGTGTACTTTAAATAAAATATAT [XGTACX_site2850],9.73
17,GATGTTCATCACTACACACACAAAGAAATATAAATA [CACACA_site7294],10.1
18,TACCCAAAGTTACATACACACTAATATTTACACCAT [CACACA_site4709],9.92
19,ATATGAAGTTATATAGTGCACATGTACAACCAAATC [GTGCAC_site9974],9.91
20,AGAAAAGAAATTAGTTGTACTCTGATGAATTATCCT [XGTACX_site6284],9.5
21,ATATATTTTTTGAATACACACATATTATAGGTAATA [CACACA_site6709],9.63
22,CGTATAAATATACGTGCATGTAACTTTTTCTATATT [TGCATGCA_site981],9.74

row,Sequence,gcPBM binding intensity (ln)
1,CTATTTATTTTTGATGCATGCCAAATATAGAAAAAA [TGCATGCA_site368],9.31
2,TAGTAGTTATCACTAACATGCAATAATATTATTTAA [TGCATGCA_site161],9.61
3,TGACTGTAGATATTTTGTACATAACCTAATATATAT [XGTACX_site970],9.71
4,TACAGTTCAATGAAGGTGCAATTAATATATAAAATA,9.62
5,ATAATATAATACGAAGGTACACATTTTCTTAATATA [XGTACX_site7947],9.63
6,TTATGTACAATTTCTTCTTTCTTTTTTCCTAAAGAC [CACACA_negctrl_site1193],9.34
7,ATAACATATATATATACACACACATATATATATGAA [CACACA_site7983],9.98
8,TTTTTTTTTTTTTTTTGTACACATAATATGAATAAT [XGTACX_site2661],9.34
9,TTTTTTTTTCTTTTCAAACACACAATTGGTATATAT [CACACA_site3321],9.91
10,TCATTTCACAGACACACACACACAATATATTTCCTT [CACACA_site9295],10.8
11,ATATTTTTATTAGTAGTGCAATTTAGTGTATATATA [GTGCAC_site9542],9.56
12,AAAAAAAAAATTAAAACATGCATAAATAAATATATT [TGCATGCA_site866],9.66
13,TATGTGTAATATTTTTGTACAGAAAAAAAAAAAAAA [XGTACX_site7075],9.41
14,AAAAAAAAAAAAAACACACACATGCACATCATATTA [CACACA_site4467],10.2
15,TATTACTATGTTATAACTTTTTTAAACGTGATCATA [TGCATGCA_negctrl_site128],9.46
16,AAAAAAAAAAAATATACACACTAATATATTTTTTTA [CACACA_site4604],9.57
17,TATTTAAAAAGAAAAAAAAAAAAAAAAATACATATA [CACACA_negctrl_site164],9.44
18,TATTAAATTTATCGGAGTACATTTAAATGTATATAC [XGTACX_site7975],9.53
19,TGTATAAGTATTAATACACACACAAAATAATAAAAA [CACACA_site9156],10.4
20,TACTTACATTATTTATTTATATAAAAAGTTAATTAT [XGTACX_negctrl_site433],9.46
21,ATAATTAACAAATACACACACACACCCCCACAAAAA [CACACA_site518],10.9
22,AGTATTCATAAAAATACACACATGGAAAAATAAACT [CACACA_site6796],10

# From the supplement of paper PMC11417369
